Experimental data: PubChem BioAssay AID743279 (National Center for Advancing Translational Sciences (NCATS), 2014)
In all, about 360,000 compounds went through this assay and about 17,000 (4.7%) were called active. Inconclusive means that the source gave no clear call. Such entries were picked first, then a sample of the others. No stated cut-off is given here; in the data, active means activity change below about -50%; inconclusive means mostly about -30% to -49%; inactive means weaker than that.
On the % scale 0 is the no-effect control and ±100 the full control effect.

Experiment: qHTS for Inhibitors of Inflammasome Signaling: IL-1-beta AlphaLISA Primary Screen
Conditions: THP-1 LPS/ATP IL-1B secretion, 16 h; at 57.5 µM, hits give low values
Method in brief: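 THP-1 cells pretreated 1 hr with compounds (up to 57.5 uM final), then stimulated with LPS (250 ng/mL final) plus ATP (1.25 mM final); secreted IL-1B measured by AlphaLISA after 16 hr, decreased signal indicating inhibition.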
For `CC(=O)Nc1ccc(OCc2cccc3ccccc23)cc1`, the activity change was inconclusive: -33%.
With `COc1ccccc1C(c1nnnn1Cc1ccco1)N1CCN(c2cccc(C)c2C)CC1` (stereo not drawn) the activity change was inconclusive: -30.8%.
With `CCn1nc(C)cc1C(=O)N1CCCC(N2CCN(Cc3ccc4c(c3)OCO4)CC2)C1` (stereo not drawn) the activity change was inactive: 32.5%.
With `Cc1cc2cc3c(cc2nc1SCC(=O)N1CCN(C(=O)c2ccco2)CC1)OCO3` the activity change was inconclusive: -33.1%.
In the case of `CCOc1ccc(N(C)Cc2cc(=O)oc3ccc(OC)cc23)cc1`, the activity change is reported as inconclusive: -50%.
With `COCCn1c(-c2ccc(F)cc2)nc2oc3cc(OC)ccc3c(=O)c2c1=O` the activity change was inactive: 70.7%.
For `COC(=O)C1=C(C)N(Cc2ccccc2)C(=NCc2cc(OC)c(OC)c(OC)c2)N[C@H]1c1cccc(F)c1`, the activity change was inconclusive: -36.5%.
In the case of `CCCCCCn1c(CN2CCCCC2CC)nc2c1c(=O)n(C)c(=O)n2C` (stereo not drawn), the activity change is reported as inactive: 23.4%.
For `COc1ccccc1N1CCN(S(=O)(=O)c2ccc3nc(-c4ccccc4)[nH]c3c2)CC1`, the activity change was inconclusive: -41.4%.
With `CCOc1ccc(-c2nc(CSCC(=O)NCc3ccco3)c(C)o2)cc1` the activity change was inconclusive: -34.8%.
For `C/C(=N\Nc1cccc([N+](=O)[O-])c1)c1cc2ccccc2o1`, the activity change was inactive: -3.69%.
For `C=CCNCCCOc1ccc(Cl)cc1Br`, the activity change was inconclusive: -42.3%.
In the case of `Cc1nonc1C(=O)N/N=C/c1ccccc1`, the activity change is reported as inactive: -7.38%.
For `COc1cccc(C(=O)Nc2cccc(-c3nc4ncccc4o3)c2C)c1`, the activity change was inconclusive: -41.7%.
In the case of `CC1(C)CC(=O)C2=C(C1)c1c(ccc3ccccc13)NC2c1ccc(Br)o1` (stereo not drawn), the activity change is reported as inconclusive: -37.6%.
In the case of `Cc1ccc(-c2cn(-c3ccccc3F)c(=S)[nH]2)cc1`, the activity change is reported as inconclusive: -31.4%.
For `O=c1c(OCc2ccccc2)cccn1Cc1ccccc1`, the activity change was inconclusive: -39.7%.
For `C=CCn1c(=N)n(CC(=O)c2ccccc2)c2ccccc21`, the activity change was inconclusive: -32.2%.
In the case of `CC(=O)N1CCN(S(=O)(=O)c2ccc(F)c(Cl)c2)CC1`, the activity change is reported as inactive: -0.834%.
With `COc1cc(/C=N/NC(=O)c2cc(-c3ccccc3)sc2N)cc(OC)c1OC` the activity change was active: -72.4%.
In the case of `COc1ccccc1C(=O)Nc1nnc(-c2ccc3c(c2)CCCC3)o1`, the activity change is reported as active: -63.4%.
For `OCC[C@H]1C[C@@H](O)[C@H](O)[C@@]2(OCc3ccccc32)O1`, the activity change was inactive: 0%.
For `Cc1cc(SCC(=O)c2ccc(Cl)cc2)nc(=O)[nH]1`, the activity change was inconclusive: -44.1%.
For `Cc1noc(C)c1CSCC(=O)Nc1nc(-c2ccc(F)c(F)c2)cs1`, the activity change was active: -80.5%.
In the case of `Cn1c(-c2ccc(F)cc2)cc2onc(-c3ccccc3Cl)c2c1=O`, the activity change is reported as inconclusive: -32.5%.
For `COc1ccc2nc(NC(=O)C3CCN(C(=O)c4ccco4)CC3)sc2c1`, the activity change was inconclusive: -46.6%.
With `COc1ccccc1NC(=O)c1nn(-c2ccc(F)c(F)c2)ccc1=O` the activity change was inconclusive: -36.6%.
For `Cc1nc2ccccc2c(=O)n1Nc1cccc(Cl)c1`, the activity change was inactive: 9.47%.
For `CCCCCCCNC(=O)C1(CC2CC(c3ccccc3)=NO2)CCNCC1` (stereo not drawn), the activity change was inconclusive: -50%.
With `O=C(O)CSc1cc(NS(=O)(=O)c2ccc(Cl)cc2)c2ccccc2c1O` the activity change was active: -84.2%.
For `N=c1c2ccccc2nc2n1CCCCC2`, the activity change was inactive: 2.23%.
For `Cc1ccsc1C1C(C#N)=C(N)Oc2n[nH]c(C)c21` (stereo not drawn), the activity change was inconclusive: -38.6%.
For `CCOC(=O)c1c(NC(=S)N2CCN(C)CC2)sc(C)c1-c1ccccc1`, the activity change was inconclusive: -44%.
In the case of `Cc1cccc(OCC(=O)Nc2ccc3c(c2)nc(CCN2CCN(c4ccccn4)CC2)n3C)c1`, the activity change is reported as inconclusive: -37.8%.
For `CC(C)N(C)Cc1nnnn1CC(=O)NCCc1cccc(C(F)(F)F)c1`, the activity change was inactive: 1.98%.
For `Cc1[nH]nc(-c2ccc(O)c(C)c2O)c1-c1cnn(-c2ccccc2)c1`, the activity change was inconclusive: -41.5%.
In the case of `CC1(C)Cc2ccccc2C(NNC(=O)c2ccccn2)=N1`, the activity change is reported as inactive: 75.4%.
With `O=c1[nH]c(=O)n(CCO)c2nnn(Cc3ccccc3)c12` the activity change was inactive: -2.13%.
In the case of `CCN(C(=O)CSc1nc2n[nH]c(C)c2c(=N)n1-c1ccc(Cl)c(C)c1)c1cccc(C)c1`, the activity change is reported as inconclusive: -42.5%.
For `Cc1ccc(C(=O)NCC(=O)OCC(=O)N2CC(C)OC(C)C2)cc1` (stereo not drawn), the activity change was inactive: 8.09%.
For `O=C(C1CCN(CCCc2ccccc2)CC1)N(CCc1ccccc1)Cc1ccccc1`, the activity change was inconclusive: -32.6%.
For `c1ccc(-c2csc(Nc3cccnc3)n2)nc1`, the activity change was inactive: -2.4%.
In the case of `COc1ccccc1-c1cnn2c(NCCc3ccccc3)cc(C)nc12`, the activity change is reported as inconclusive: -37.5%.
For `CCN(CC)S(=O)(=O)c1ccc(N2CCOCC2)c(NC(=O)c2sccc2C)c1`, the activity change was inconclusive: -33.1%.
With `COc1ccc(Nc2oc(-c3ccccc3)nc2C#N)cc1` the activity change was inconclusive: -35.9%.
For `COc1ccc(/C=C2/CCc3ccccc3C2=O)cc1OC`, the activity change was active: -98.7%.
With `N#Cc1ccsc1NC(=O)CCS(=O)(=O)c1ccccc1` the activity change was inconclusive: -33.6%.
In the case of `CCNCCC(=O)N1c2ccccc2Sc2ccc(C(F)(F)F)cc21`, the activity change is reported as inconclusive: -36%.
For `CCCCCCCCCOC(=O)C(CC(=O)O)N1CCOCC1` (stereo not drawn), the activity change was inactive: -19.6%.
With `O=C(c1cc(COc2ccc(F)cc2Cl)on1)N1CCc2ccccc2C1` the activity change was inconclusive: -32.3%.
For `Cc1ccc2cc(C(c3nnnn3C3CCCC3)N(Cc3cccnc3)Cc3ccco3)c(=O)[nH]c2c1` (stereo not drawn), the activity change was inconclusive: -46.8%.
With `Cc1cccc(-n2cnc(C(=O)N/N=C/c3ccccc3)c2)n1` the activity change was inconclusive: -43.2%.
With `CCOC(=O)c1cnc(SC)nc1Nc1cccc(F)c1` the activity change was inactive: 42.5%.
With `O=C(Cc1ccccc1)NCC(=O)N/N=C/c1ccc([N+](=O)[O-])s1` the activity change was inconclusive: -46.5%.
With `Cc1cccc(NC(=O)CCC(=O)c2cccs2)n1` the activity change was inactive: 4.98%.
In the case of `O=C(CSc1nc2nn(-c3ccccc3)c(=O)c-2c2n1CCCCC2)NCCCc1ccccc1`, the activity change is reported as active: -59.8%.
For `O=C1NC(=Nc2ccc(F)cc2)SC1Cc1ccc(F)cc1` (stereo not drawn), the activity change was inconclusive: -38.1%.
In the case of `COC(=O)COc1ccc(/C=N/NC(=O)c2ccc(N(Cc3ccccc3)S(C)(=O)=O)cc2)cc1`, the activity change is reported as active: -95.3%.
